Assay results: the BET-seq Pho4 binding data (Le et al. 2018)
The other results are listed elsewhere or left out. Values were computed here from the reads of four pooled replicates and scatter widely.

molecular target: T1, Pho4 (S. cerevisiae) (UniProt P07270); assay: relative binding free energy (BET-seq); higher = weaker binding; details: reference: library average
T1 sequence: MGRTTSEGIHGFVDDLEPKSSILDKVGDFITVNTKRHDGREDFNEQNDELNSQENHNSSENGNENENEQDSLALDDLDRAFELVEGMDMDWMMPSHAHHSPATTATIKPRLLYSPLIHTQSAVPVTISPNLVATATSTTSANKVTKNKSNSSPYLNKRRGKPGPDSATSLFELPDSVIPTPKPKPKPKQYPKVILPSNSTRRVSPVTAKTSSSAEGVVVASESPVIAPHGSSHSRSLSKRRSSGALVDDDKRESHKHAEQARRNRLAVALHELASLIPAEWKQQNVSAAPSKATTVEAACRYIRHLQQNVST

Row | Sequence | relative binding free energy
1 | CATAACACGTGGGGTG | -0.18 kcal/mol
2 | GTCTGCACGTGTCGGT | 0.17 kcal/mol
3 | TGTCTCACGTGTGGGT | 0.23 kcal/mol
4 | GAAATCACGTGGGGTG | 0.13 kcal/mol
5 | GTTATCACGTGCTAGG | 0.01 kcal/mol
6 | AATCACACGTGTATGG | 0.11 kcal/mol
7 | TCGCGCACGTGTGTTT | 0.02 kcal/mol
8 | ATGGACACGTGGATTA | 0.12 kcal/mol
9 | ATTTTCACGTGTAATA | 0.23 kcal/mol
10 | TGTTGCACGTGTAGGG | -0.01 kcal/mol
11 | CGCAGCACGTGAGGGA | 0.24 kcal/mol
12 | GGTTACACGTGATGTT | 0.27 kcal/mol
13 | ATGTCCACGTGGTCGG | -0.15 kcal/mol
14 | ATAAGCACGTGTAAGG | -0.03 kcal/mol
15 | GGACTCACGTGGGGAT | 0.1 kcal/mol
16 | TTGTTCACGTGACAGT | 0.42 kcal/mol
17 | AGGTTCACGTGTCAAT | 0.22 kcal/mol
18 | TCAGGCACGTGGGCAT | -0.21 kcal/mol
19 | TAATTCACGTGGATGG | 0.19 kcal/mol
20 | ATTACCACGTGTAGGT | 0.15 kcal/mol
21 | AGGTTCACGTGATAGA | 0.36 kcal/mol
22 | GGAGTCACGTGTTAAA | 0.23 kcal/mol
23 | CTTATCACGTGTGTGC | 0.06 kcal/mol

Row | Sequence | relative binding free energy
24 | TAGTTCACGTGCGAGG | 0.32 kcal/mol
25 | TATCGCACGTGGGTTA | -0.27 kcal/mol
26 | TAAGTCACGTGATGTC | 0.31 kcal/mol
27 | GGGTTCACGTGAATCG | 0.34 kcal/mol
28 | TTGTGCACGTGTCGAG | 0.04 kcal/mol
29 | GGTCACACGTGTGGGT | 0.13 kcal/mol
30 | GATAACACGTGAAGTG | 0.25 kcal/mol
31 | GTACGCACGTGTAGTT | 0.05 kcal/mol
32 | AGACACACGTGTGGGG | 0.04 kcal/mol
33 | TATTGCACGTGAAGTG | 0.18 kcal/mol
34 | GTTTGCACGTGGGGCA | -0.06 kcal/mol
35 | CTGGACACGTGTAGTG | -0.1 kcal/mol
36 | TGCGACACGTGTGTGA | 0.12 kcal/mol
37 | AAGTGCACGTGGTTCG | 0.01 kcal/mol
38 | GGGGTCACGTGGCGAA | 0.17 kcal/mol
39 | TTGGACACGTGAGCGA | 0.24 kcal/mol
40 | ATTAACACGTGTTCAG | 0.09 kcal/mol
41 | ATGGACACGTGTGCGG | 0.03 kcal/mol
42 | GTTTGCACGTGTGACA | 0.07 kcal/mol
43 | ATGGCCACGTGGGGCT | -0.17 kcal/mol
44 | TGTTTCACGTGGGCTA | 0.09 kcal/mol
45 | AAGGGCACGTGTTTAG | -0.07 kcal/mol
46 | CTGTGCACGTGGAGGA | -0.08 kcal/mol

Row | Sequence | relative binding free energy
47 | GTGTCCACGTGGCTGG | -0.07 kcal/mol
48 | ATAACCACGTGTGTGT | 0.03 kcal/mol
49 | TTAGGCACGTGGTGAA | -0.34 kcal/mol
50 | TAGATCACGTGTGATT | 0.15 kcal/mol
51 | GCGTGCACGTGAGGGT | 0.18 kcal/mol
52 | AGAGTCACGTGCGGGG | 0.08 kcal/mol
53 | TCGTTCACGTGCGAGG | 0.35 kcal/mol
54 | CAGGGCACGTGTTAGT | -0.23 kcal/mol
55 | GTTGGCACGTGCTTTG | -0.21 kcal/mol
56 | GAGGTCACGTGGTCAT | 0.05 kcal/mol
57 | TGTTGCACGTGAGAGC | 0.26 kcal/mol
58 | CAATGCACGTGGGTTA | -0.15 kcal/mol
59 | TAGATCACGTGCTGGG | 0.27 kcal/mol
60 | GGGGCCACGTGGTAGT | -0.03 kcal/mol
61 | TTAGGCACGTGGAGGT | -0.05 kcal/mol
62 | GAGGGCACGTGGGCGT | -0.14 kcal/mol
63 | AGGGGCACGTGCTGGC | -0.05 kcal/mol
64 | TGATTCACGTGGGTAC | 0.07 kcal/mol
65 | ATGTGCACGTGAGGCA | 0.17 kcal/mol
66 | TTGTGCACGTGTTTGT | 0.02 kcal/mol
67 | TTTTCCACGTGGGTTC | 0.07 kcal/mol
68 | CGCGACACGTGGTGGG | -0.03 kcal/mol
69 | AGTGGCACGTGGGCCG | -0.31 kcal/mol

Row | Sequence | relative binding free energy
70 | TATAGCACGTGATTGA | 0.1 kcal/mol
71 | ATTTTCACGTGGCGGT | 0.22 kcal/mol
72 | AGGCTCACGTGGAGGG | 0.09 kcal/mol
73 | GAGGACACGTGTTAGT | 0.21 kcal/mol
74 | TAATTCACGTGCGTGT | 0.23 kcal/mol
75 | TGTGTCACGTGGTCAA | -0.11 kcal/mol
76 | AGGGTCACGTGATTGG | 0.22 kcal/mol
77 | TAGATCACGTGTATAT | 0.21 kcal/mol
78 | ATGTGCACGTGAATGT | 0.12 kcal/mol
79 | TCGTCCACGTGATGGT | 0.22 kcal/mol
80 | AAGAGCACGTGTCGGT | -0.11 kcal/mol
81 | AGTTGCACGTGCAAGT | -0.07 kcal/mol
82 | GGCGGCACGTGTATGG | 0.06 kcal/mol
83 | GATGGCACGTGGTTCG | -0.14 kcal/mol
84 | TGTTTCACGTGCCTGG | 0.22 kcal/mol
85 | AGCTTCACGTGCGGTG | 0.16 kcal/mol
86 | ACTTACACGTGAGGTT | 0.3 kcal/mol
87 | TTACTCACGTGGGTTG | 0.06 kcal/mol
88 | TGGGTCACGTGCAGGG | 0.09 kcal/mol
89 | TATTTCACGTGCTTTT | 0.23 kcal/mol
90 | TTCTACACGTGAGTTG | 0.33 kcal/mol
91 | ATTGGCACGTGGGCGT | -0.29 kcal/mol
92 | TAATGCACGTGAGTCG | 0.28 kcal/mol

Row | Sequence | relative binding free energy
93 | TTAGTCACGTGGGTTG | 0.02 kcal/mol
94 | AAAGGCACGTGTTTGC | -0.07 kcal/mol
95 | AGACGCACGTGTAGTG | -0.07 kcal/mol
96 | TTAAGCACGTGTTGCA | -0.2 kcal/mol
97 | GGTAGCACGTGAAGGT | 0.25 kcal/mol
98 | GTTACCACGTGGGATG | -0.17 kcal/mol
99 | GGGGGCACGTGGGTCG | -0.15 kcal/mol
100 | TGATACACGTGGAGGC | 0.06 kcal/mol
101 | GATTACACGTGGTACG | 0.19 kcal/mol
102 | AGCTTCACGTGGTTCG | 0.25 kcal/mol
103 | AGTTGCACGTGTAGTA | 0.07 kcal/mol
104 | TGCTTCACGTGGTTGA | 0.37 kcal/mol
105 | GATCGCACGTGTTGGG | -0.02 kcal/mol
106 | TTAAACACGTGGGAGA | -0.08 kcal/mol
107 | AGGCACACGTGTTCGT | 0.19 kcal/mol
108 | GTTTACACGTGTAGTG | 0.23 kcal/mol
109 | CTGGACACGTGGGATG | -0.1 kcal/mol
110 | CGTTCCACGTGGTTGT | -0.03 kcal/mol
111 | CTGTGCACGTGTTGGT | 0.01 kcal/mol
112 | GTTAACACGTGGGTAT | 0.09 kcal/mol
113 | TCTGGCACGTGTTTAA | -0.06 kcal/mol
114 | GTGGTCACGTGGACTG | 0.04 kcal/mol
115 | AGTTTCACGTGCTATT | 0.21 kcal/mol
